Among the data in publication PMC8378479 are binding values, retold here.

Protein sequences, listed by entry. Tags and fused reporters are not part of them. Residues count along the entry.
UniProt P28905, residues 2-147: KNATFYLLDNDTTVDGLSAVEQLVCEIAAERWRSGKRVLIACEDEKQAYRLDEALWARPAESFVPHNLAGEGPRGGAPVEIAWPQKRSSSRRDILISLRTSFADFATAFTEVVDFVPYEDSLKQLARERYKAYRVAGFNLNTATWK

These are yes or no findings as the source states them, for the method shown. Some binding calls cover weakened binding; strength is not graded here.

Holding throughout (assay): two-hybrid; Matchmaker Gold yeast two-hybrid, Gal4 AD and BD fusions in both orientations (HolC-BD with YoaA-AD; HolC-AD with YoaA-BD); growth on -His plates, 2 or 3 days at 30°C; three independent platings
Test [1] concerns the target T1, YoaAΔ619–636 C-terminal truncation (Escherichia coli) (UniProt P76257).
T1 sequence: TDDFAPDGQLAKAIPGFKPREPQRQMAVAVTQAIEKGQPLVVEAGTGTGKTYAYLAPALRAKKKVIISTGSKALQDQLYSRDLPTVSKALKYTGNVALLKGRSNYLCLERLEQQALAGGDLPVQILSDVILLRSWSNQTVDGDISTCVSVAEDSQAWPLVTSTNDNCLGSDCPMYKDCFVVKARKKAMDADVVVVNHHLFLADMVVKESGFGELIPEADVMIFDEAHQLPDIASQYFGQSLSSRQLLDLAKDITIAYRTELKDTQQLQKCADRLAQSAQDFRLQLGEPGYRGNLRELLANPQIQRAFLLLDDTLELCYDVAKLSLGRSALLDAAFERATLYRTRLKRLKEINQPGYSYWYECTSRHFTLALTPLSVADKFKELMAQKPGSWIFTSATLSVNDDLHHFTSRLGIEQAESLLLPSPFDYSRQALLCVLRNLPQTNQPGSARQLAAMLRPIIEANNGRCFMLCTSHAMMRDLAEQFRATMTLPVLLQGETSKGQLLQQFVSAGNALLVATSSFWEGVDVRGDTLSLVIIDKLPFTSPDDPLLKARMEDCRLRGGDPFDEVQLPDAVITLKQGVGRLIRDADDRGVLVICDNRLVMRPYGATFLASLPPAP

Test [2] addresses T2, YoaA R619A (Escherichia coli) (UniProt P76257).
T2 sequence: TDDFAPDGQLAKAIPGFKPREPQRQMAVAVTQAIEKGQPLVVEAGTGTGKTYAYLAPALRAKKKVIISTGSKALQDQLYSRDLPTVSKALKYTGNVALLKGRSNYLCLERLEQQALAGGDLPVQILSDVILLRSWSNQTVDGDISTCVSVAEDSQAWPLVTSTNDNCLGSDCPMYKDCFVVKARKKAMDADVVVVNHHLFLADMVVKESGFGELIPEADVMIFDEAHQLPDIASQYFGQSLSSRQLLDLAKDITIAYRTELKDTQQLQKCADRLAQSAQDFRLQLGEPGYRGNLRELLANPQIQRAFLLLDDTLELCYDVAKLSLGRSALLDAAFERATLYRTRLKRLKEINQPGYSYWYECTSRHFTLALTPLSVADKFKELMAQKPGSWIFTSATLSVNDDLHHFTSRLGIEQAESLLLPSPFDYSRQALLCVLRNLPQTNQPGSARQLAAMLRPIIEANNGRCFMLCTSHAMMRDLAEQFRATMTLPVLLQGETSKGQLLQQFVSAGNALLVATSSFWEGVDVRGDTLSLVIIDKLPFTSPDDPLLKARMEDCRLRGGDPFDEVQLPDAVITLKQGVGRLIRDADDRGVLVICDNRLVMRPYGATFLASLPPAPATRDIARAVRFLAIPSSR

Test [3] deals with T3, YoaA T620A (Escherichia coli) (UniProt P76257).
T3 sequence: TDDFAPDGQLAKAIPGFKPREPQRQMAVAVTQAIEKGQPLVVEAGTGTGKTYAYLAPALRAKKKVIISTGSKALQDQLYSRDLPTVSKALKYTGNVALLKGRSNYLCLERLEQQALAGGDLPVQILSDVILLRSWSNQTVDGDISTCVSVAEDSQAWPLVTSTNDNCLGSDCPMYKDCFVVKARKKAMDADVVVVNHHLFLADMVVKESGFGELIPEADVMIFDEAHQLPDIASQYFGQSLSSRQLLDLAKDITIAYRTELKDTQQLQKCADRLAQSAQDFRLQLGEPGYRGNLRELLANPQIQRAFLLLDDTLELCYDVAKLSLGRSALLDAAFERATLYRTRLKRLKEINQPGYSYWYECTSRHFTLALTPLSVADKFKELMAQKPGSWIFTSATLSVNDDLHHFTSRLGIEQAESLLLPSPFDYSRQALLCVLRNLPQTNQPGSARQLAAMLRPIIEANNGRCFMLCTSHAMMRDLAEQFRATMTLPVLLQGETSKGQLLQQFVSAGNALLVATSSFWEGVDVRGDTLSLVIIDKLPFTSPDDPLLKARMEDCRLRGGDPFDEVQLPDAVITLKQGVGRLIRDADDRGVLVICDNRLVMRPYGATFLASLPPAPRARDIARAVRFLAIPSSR

Test [4] concerns the target T4, YoaA (wild type), Escherichia coli XP-D/DinG family DNA helicase (Escherichia coli) (UniProt P76257).
T4 sequence: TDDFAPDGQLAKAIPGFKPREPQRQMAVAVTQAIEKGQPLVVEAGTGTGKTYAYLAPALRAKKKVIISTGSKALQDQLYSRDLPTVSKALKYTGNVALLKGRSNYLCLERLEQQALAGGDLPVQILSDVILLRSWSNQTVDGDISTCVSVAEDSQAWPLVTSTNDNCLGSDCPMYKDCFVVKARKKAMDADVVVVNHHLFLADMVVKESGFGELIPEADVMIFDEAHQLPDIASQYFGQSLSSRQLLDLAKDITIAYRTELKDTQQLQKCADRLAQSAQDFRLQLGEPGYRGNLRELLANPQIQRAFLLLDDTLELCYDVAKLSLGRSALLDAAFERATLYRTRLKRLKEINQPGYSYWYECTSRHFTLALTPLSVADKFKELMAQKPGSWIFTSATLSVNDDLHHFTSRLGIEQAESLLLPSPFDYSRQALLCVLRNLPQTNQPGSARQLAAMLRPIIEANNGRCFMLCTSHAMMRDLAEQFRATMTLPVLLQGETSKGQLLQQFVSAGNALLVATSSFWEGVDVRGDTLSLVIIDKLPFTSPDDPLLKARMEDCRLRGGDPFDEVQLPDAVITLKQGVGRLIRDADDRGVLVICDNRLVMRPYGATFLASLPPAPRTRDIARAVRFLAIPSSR

Test [5] addresses HolC (χ subunit of DNA polymerase III holoenzyme), Escherichia coli (Escherichia coli) (UniProt P28905).

Regarding “HolC (χ subunit of DNA polymerase III holoenzyme), Escherichia coli (from UniProt P28905 2-147)”, the binding entry in test [1] is “no binding”; in test [2] it was “no binding”; in test [3], “no binding”; in test [4], “binds”.

B1: YoaAΔ619–636 C-terminal truncation (domain or fragment, UniProt P76257 2-618)
chain: TDDFAPDGQLAKAIPGFKPREPQRQMAVAVTQAIEKGQPLVVEAGTGTGKTYAYLAPALRAKKKVIISTGSKALQDQLYSRDLPTVSKALKYTGNVALLKGRSNYLCLERLEQQALAGGDLPVQILSDVILLRSWSNQTVDGDISTCVSVAEDSQAWPLVTSTNDNCLGSDCPMYKDCFVVKARKKAMDADVVVVNHHLFLADMVVKESGFGELIPEADVMIFDEAHQLPDIASQYFGQSLSSRQLLDLAKDITIAYRTELKDTQQLQKCADRLAQSAQDFRLQLGEPGYRGNLRELLANPQIQRAFLLLDDTLELCYDVAKLSLGRSALLDAAFERATLYRTRLKRLKEINQPGYSYWYECTSRHFTLALTPLSVADKFKELMAQKPGSWIFTSATLSVNDDLHHFTSRLGIEQAESLLLPSPFDYSRQALLCVLRNLPQTNQPGSARQLAAMLRPIIEANNGRCFMLCTSHAMMRDLAEQFRATMTLPVLLQGETSKGQLLQQFVSAGNALLVATSSFWEGVDVRGDTLSLVIIDKLPFTSPDDPLLKARMEDCRLRGGDPFDEVQLPDAVITLKQGVGRLIRDADDRGVLVICDNRLVMRPYGATFLASLPPAP
As for B1, in test [5], the binding entry was “no binding”.

B2: YoaA (wild type), Escherichia coli XP-D/DinG family DNA helicase (enzyme, UniProt P76257 2-636)
chain: TDDFAPDGQLAKAIPGFKPREPQRQMAVAVTQAIEKGQPLVVEAGTGTGKTYAYLAPALRAKKKVIISTGSKALQDQLYSRDLPTVSKALKYTGNVALLKGRSNYLCLERLEQQALAGGDLPVQILSDVILLRSWSNQTVDGDISTCVSVAEDSQAWPLVTSTNDNCLGSDCPMYKDCFVVKARKKAMDADVVVVNHHLFLADMVVKESGFGELIPEADVMIFDEAHQLPDIASQYFGQSLSSRQLLDLAKDITIAYRTELKDTQQLQKCADRLAQSAQDFRLQLGEPGYRGNLRELLANPQIQRAFLLLDDTLELCYDVAKLSLGRSALLDAAFERATLYRTRLKRLKEINQPGYSYWYECTSRHFTLALTPLSVADKFKELMAQKPGSWIFTSATLSVNDDLHHFTSRLGIEQAESLLLPSPFDYSRQALLCVLRNLPQTNQPGSARQLAAMLRPIIEANNGRCFMLCTSHAMMRDLAEQFRATMTLPVLLQGETSKGQLLQQFVSAGNALLVATSSFWEGVDVRGDTLSLVIIDKLPFTSPDDPLLKARMEDCRLRGGDPFDEVQLPDAVITLKQGVGRLIRDADDRGVLVICDNRLVMRPYGATFLASLPPAPRTRDIARAVRFLAIPSSR
On to B2, for which the binding entry in test [5] is “binds”.

B3: YoaA R619A (enzyme, UniProt P76257 2-636)
chain: TDDFAPDGQLAKAIPGFKPREPQRQMAVAVTQAIEKGQPLVVEAGTGTGKTYAYLAPALRAKKKVIISTGSKALQDQLYSRDLPTVSKALKYTGNVALLKGRSNYLCLERLEQQALAGGDLPVQILSDVILLRSWSNQTVDGDISTCVSVAEDSQAWPLVTSTNDNCLGSDCPMYKDCFVVKARKKAMDADVVVVNHHLFLADMVVKESGFGELIPEADVMIFDEAHQLPDIASQYFGQSLSSRQLLDLAKDITIAYRTELKDTQQLQKCADRLAQSAQDFRLQLGEPGYRGNLRELLANPQIQRAFLLLDDTLELCYDVAKLSLGRSALLDAAFERATLYRTRLKRLKEINQPGYSYWYECTSRHFTLALTPLSVADKFKELMAQKPGSWIFTSATLSVNDDLHHFTSRLGIEQAESLLLPSPFDYSRQALLCVLRNLPQTNQPGSARQLAAMLRPIIEANNGRCFMLCTSHAMMRDLAEQFRATMTLPVLLQGETSKGQLLQQFVSAGNALLVATSSFWEGVDVRGDTLSLVIIDKLPFTSPDDPLLKARMEDCRLRGGDPFDEVQLPDAVITLKQGVGRLIRDADDRGVLVICDNRLVMRPYGATFLASLPPAPATRDIARAVRFLAIPSSR
Turning to B3, the binding entry in test [5] was “no binding”.

B4: YoaA T620A (enzyme, UniProt P76257 2-636)
chain: TDDFAPDGQLAKAIPGFKPREPQRQMAVAVTQAIEKGQPLVVEAGTGTGKTYAYLAPALRAKKKVIISTGSKALQDQLYSRDLPTVSKALKYTGNVALLKGRSNYLCLERLEQQALAGGDLPVQILSDVILLRSWSNQTVDGDISTCVSVAEDSQAWPLVTSTNDNCLGSDCPMYKDCFVVKARKKAMDADVVVVNHHLFLADMVVKESGFGELIPEADVMIFDEAHQLPDIASQYFGQSLSSRQLLDLAKDITIAYRTELKDTQQLQKCADRLAQSAQDFRLQLGEPGYRGNLRELLANPQIQRAFLLLDDTLELCYDVAKLSLGRSALLDAAFERATLYRTRLKRLKEINQPGYSYWYECTSRHFTLALTPLSVADKFKELMAQKPGSWIFTSATLSVNDDLHHFTSRLGIEQAESLLLPSPFDYSRQALLCVLRNLPQTNQPGSARQLAAMLRPIIEANNGRCFMLCTSHAMMRDLAEQFRATMTLPVLLQGETSKGQLLQQFVSAGNALLVATSSFWEGVDVRGDTLSLVIIDKLPFTSPDDPLLKARMEDCRLRGGDPFDEVQLPDAVITLKQGVGRLIRDADDRGVLVICDNRLVMRPYGATFLASLPPAPRARDIARAVRFLAIPSSR
Consider B4, for which the binding entry in test [5] was “no binding”.
